These results are taken from PubChem BioAssay (NCI).

The subject of this assay is NCI-H322M lung. In words: DTP human tumour cell line panel, 48 h.

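48-hour exposure; five concentrations; linearly interpolated endpoints. Here, GI50 denotes the concentration required for 50% inhibition of growth. The concentration for full growth arrest is given as TGI.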

The GI50 is the concentration giving 50% growth inhibition. One may read the TGI as the concentration at which net growth stops. The low end stands for greater sensitivity of the cells, the high end for lower sensitivity of the cells. In the case of `CN(N=O)C(=O)N[C@@H](C=O)[C@@H](O)[C@H](O)[C@H](O)CO`, the GI50 is above 750 µM and the TGI was above 750 µM. Molecule `Fc1ccc(OCc2nc3cc(C(F)(F)F)ccc3nc2-c2ccccc2)cc1` had a TGI above 100 µM. As for `CCn1c(-c2ccc(F)cc2)nc2c1C(=O)c1ccccc1C2=O`, the concentration for total growth inhibition (TGI) is above 100 µM. The molecule `CSCCC(N)P(C)(=O)O` (centres undefined) came in with a TGI above 100 µM.

For the molecule `Cc1ccc(/C(=C\C(=O)C(=O)NC23CC4CC(CC(C4)C2)C3)Sc2ccccc2)cc1`, the concentration for total growth inhibition (TGI) is above 10 µM.

With `CCOC(=O)C1=C(C)OC(=O)[C@@]2(OC)C=C(Cl)[C@@]12C`, the concentration for total growth inhibition (TGI) is above 100 µM. With `O=C(CC(C(=O)c1ccco1)c1cccs1)c1cccs1` (centres undefined), the TGI is above 100 µM. For the molecule `O=c1ssc(Cl)c1Nc1c(Cl)ssc1=O`, the TGI was found to be 38.9 µM. As for `C=CCn1c(C23CC4CC(CC(C4)C2)C3)n[nH]c1=S`, the TGI was above 100 µM. Consider `O=C(O)[C@@H]1CCC(=O)N1C(c1ccc2c(c1)OCO2)c1ccc2c(c1)OCO2`, for which the TGI is above 100 µM. Take `O=C(CCCN1CCOCC1)Nc1ccc(Cn2nnc3c2C(=O)c2nnn(Cc4ccc(NC(=O)CCCN5CCOCC5)cc4)c2C3=O)cc1`: the GI50 was 6.25 µM and the TGI is above 100 µM. In turn, `CCC1CN2CCC1CC2` (centres undefined) displayed a TGI above 100 µM. `O=C1c2ccccc2C(=O)c2c(NCCNCCO)ccc(O)c21` showed a total growth inhibition concentration (TGI) of 11.1 µM. Still for that read-out and setting: as for `O=C(c1ccc2ccccc2c1)N(Cc1cccnc1)C(=S)N(Cc1cccnc1)C(=O)c1ccc2ccccc2c1`, the figure is above 100 µM; as for `O=C1N(c2ccccc2)C(=O)C2(SC=NN2Cc2ccccc2)N1c1ccccc1` (centres undefined), above 100 µM; as for `Cc1ccc(S(=O)(=O)N/N=c2\c(C)c(C3=NS(=O)(=O)c4cc(S(N)(=O)=O)c(Cl)cc4N3)oc3c(Cl)cc(Cl)cc23)cc1`, above 100 µM. The molecule `Cc1cc2c(cc1C)[n+](=O)c(C#N)c(Cl)n2[O-]` displayed a TGI of 41.2 µM. Same read-out and setting: as for `CCCCCC[C@H]1CC(=O)C2CCCC[C@@]23CC[C@H](CCl)N13` (some centres undefined) (tested in a mixture with another compound), the figure is above 100 µM. For the molecule `O=C(c1ccco1)c1nc2cc(F)ccc2[n+]([O-])c1C(F)(F)F`, the GI50 is 39 µM and the concentration for total growth inhibition (TGI) was above 100 µM. Molecule `C=CCC(CC=O)(C(=O)OCC)C(=O)OCC` yielded a TGI above 100 µM. Turning to `Oc1c(CN2CCCC2)cc(COCc2ccc(Br)cc2)c2cccnc12`, the GI50 was 0.4 µM and the TGI turned out to be 4.81 µM.

Molecule `COC1CCC(O)C(/C=C/[N+](=O)[O-])C1` (centres undefined) yielded a concentration for total growth inhibition (TGI) of 24.2 µM.

On to `CCOC(=O)C(NCc1ccc2c(c1)OCO2)(NC(=O)c1ccccc1)C(F)(F)F` (centres undefined), for which the TGI is above 100 µM. Take `Cn1cc(-c2cnc(-c3cn(C)c4ccccc34)cn2)c2ccccc21`: the total growth inhibition concentration (TGI) is above 100 µM. Consider `CC/C=C\C/C=C\C[C@H](O)C/C=C1/C(=O)C=C[C@@H]1C/C=C\CCCC(=O)O`, for which the GI50 is 7.84 µM and the TGI was 21.1 µM. Molecule `CCOC(=O)Nc1cc2c(c(N)n1)N=C(c1ccccc1)[C@H](C)N2` gave a TGI of 30.2 µM. The molecule `Nc1c(-c2nc3ccccc3o2)sc(=S)n1-c1ccc(Cl)cc1` had a total growth inhibition concentration (TGI) above 100 µM. As to `COc1ccc2c(c1)C(=O)c1c-2c(Nc2ccc(C(C)=O)cc2)nc2ccccc12`, the GI50 was 92.6 µM and the total growth inhibition concentration (TGI) was above 100 µM. As for `CC(=O)c1c(C)n(C)c2c1nnc1ccccc12`, the total growth inhibition concentration (TGI) was above 100 µM. Regarding `CC(=O)c1cccc(NC(=O)C(=O)C(C2OC(=O)c3ccccc32)[N+](=O)[O-])c1` (centres undefined), the total growth inhibition concentration (TGI) was above 100 µM. For the molecule `CC(C)OC(=O)C1=C(O)c2ccccc2S(=O)(=O)N1`, the TGI was above 100 µM. The same measure, in the same setting: the value for `c1ccc(C2SCc3nc4cc5ccccc5cc4n32)cc1` (centres undefined) was above 100 µM. In turn, `COc1cc(=O)n2c3ccccc3n(C)c2c1C#N` registered a TGI above 100 µM. On to `CC(C)(C#N)c1cc(F)cc(C(=O)Nc2cc(Nc3ncccc3-c3ncnc4nc[nH]c34)ccc2F)c1`, for which the GI50 is 1.83 µM and the concentration for total growth inhibition (TGI) was above 10 µM. For `CC1CCC(O)(C(C)(C(=O)O)c2ccccc2)CC1` (centres undefined), the TGI is above 100 µM. Regarding `CCOC(=O)C(C)(C(=O)OCC)/C(Cl)=C\Cl`, the TGI was 4.66 µM. In the case of `O=C(CSC(c1ccccc1)c1ccccc1)N/N=C/c1cccc(Cl)c1`, the GI50 is 20.4 µM and the TGI stood at 41.1 µM. As to `O=C(O)Cc1cccc2c1Oc1ccccc1S2`, the concentration for total growth inhibition (TGI) was above 100 µM. Consider `OCC1OC(OCC(O)C(O)C(O)C(/C=N/Nc2ccccc2)=N/Nc2ccccc2)C(O)C(O)C1O` (centres undefined), for which the total growth inhibition concentration (TGI) is above 100 µM.

The molecule `CCSC1(SCC)CC(Cc2ccc(OC)cc2)N(C=NC(C)(C)C)C1` (centres undefined) yielded a TGI above 100 µM.

Regarding `O=C1C2=Nc3ccccc3C(O)N2c2ccccc21` (centres undefined), the concentration for total growth inhibition (TGI) was above 100 µM. Consider `Cn1nnnc1N/N=C/c1ccccc1`, for which the TGI is above 10 µM.

In the case of `CC(=O)Nc1sc([N+](=O)[O-])cc1S(=O)(=O)c1ccc(Cl)cc1`, the total growth inhibition concentration (TGI) was above 100 µM. The same measure, in the same setting: the value for `CN(C)CCNC(=O)Cn1cc([N+](=O)[O-])c(=O)c2ccccc21` was above 100 µM. For the molecule `C[C@@H]1CC[C@@H]2[C@@H]1[C@H](OC(=O)/C=C/c1ccccc1)[C@]1(C3CCCCC3)C[C@@H](NC(=O)CO)[C@@]2(C)O1`, the GI50 was 15.7 µM and the TGI came out at 29.5 µM.

In turn, `c1cc(-c2ccc(-c3ccc(C4=NC5CCCCC5N4)cc3)o2)ccc1C1=NC2CCCCC2N1` (centres undefined) came in with a TGI of 2.69 µM. The molecule `COc1ccc(C(=O)C(C(=O)C(=O)Nc2ccc(Cl)c(Cl)c2)c2ccc(OC)cc2)cc1` (centres undefined) gave a total growth inhibition concentration (TGI) above 100 µM. Still for that read-out and setting: the value for `CSC1=NC(C(N)=O)C(N)N1C` (centres undefined) was above 100 µM.

`CN(C)c1ncnc2c1nnn2C1OC(CO)C(O)C1O` (centres undefined): the GI50 is 1.11 µM and the concentration for total growth inhibition (TGI) is above 100 µM. In turn, `CN1C(=O)N/C(=C\c2ccc(S(=O)(=O)N/N=C\C(O)C(O)C(O)CO)cc2)C1=O` (centres undefined) displayed a TGI above 100 µM.

`O=C(c1ccccc1)c1ccc(OCCOc2ccc(Nc3ccccc3)cc2)cc1` had a total growth inhibition concentration (TGI) above 100 µM. `O=C1C(c2c(O)[nH]c3ccc(S(=O)(=O)O)cc23)=Nc2ccc(Br)cc21`: the TGI is above 100 µM. For `CC(=O)O[C@]1(C)OC(=O)[C@@H](C)N1[N+](=O)[O-]`, the TGI was above 100 µM.

As for `COC(=O)[C@H]1C[C@H]1NC(=O)C(CC(=O)OCc1ccccc1)NC(=O)OCc1ccccc1` (some centres undefined), the TGI was above 100 µM. Consider `CC(C)(C)c1[nH]cnc1/C=c1\[nH]c(=O)/c(=C/c2ccccc2)[nH]c1=O`, for which the GI50 is 0.0407 µM and the concentration for total growth inhibition (TGI) was determined as 48.5 µM. For the molecule `O=[As](O)(O)c1ccc(N=Nc2ccc([As](=O)(O)O)cc2)cc1`, the total growth inhibition concentration (TGI) was above 100 µM.

Turning to `O=C(CCCN1CCC2(CC1)NC(=O)c1ccccc1O2)c1ccc(F)cc1`, the concentration for total growth inhibition (TGI) was above 100 µM. In turn, `CCCCCCCCCCCCCCCC(=O)OCC1CCCN2CCCCC12` (centres undefined) registered a TGI above 100 µM. On to `O=C(CN1CCN(c2ccc(Cl)cc2)CC1)N1CCN(c2nnc(-c3ccc(Cl)cc3)c(-c3ccc(Cl)cc3)n2)CC1`, for which the GI50 was above 100 µM and the TGI was above 100 µM. In turn, `O=C(O)CCSCc1ccc(I)cc1` returned a TGI above 100 µM. In the case of `Cn1cc(C2=C(c3cccnc3)C(=O)NC2=O)c2ccccc21`, the GI50 was above 25 µM and the TGI was above 25 µM. The molecule `C/C(=N\Oc1cc(Cl)ncn1)c1ccccn1` yielded a TGI above 100 µM. `O=P1(c2ccccc2)c2ccccc2CCc2ccccc21` came in with a TGI above 100 µM. Consider `COc1ccc(N=C2C(=Nc3ccc(OC)cc3)N(S(=O)(=O)c3ccccc3)C(=S)N2c2ccccc2)cc1`, for which the concentration for total growth inhibition (TGI) is above 100 µM. As for `COc1ccc2nc3cc(Cl)ccc3c(N3CCN(c4ccnc(N5CCOCC5)n4)CC3)c2c1`, the GI50 was above 100 µM and the concentration for total growth inhibition (TGI) was above 100 µM. Molecule `CCN1C(NN)=NS(=O)(=O)c2ccccc21` returned a total growth inhibition concentration (TGI) above 100 µM. The molecule `CN[C@@H](C)[C@@H](N)c1ccccc1` gave a concentration for total growth inhibition (TGI) above 100 µM. Regarding `CN(C)c1ccc(/C=C(\C#N)c2nc3ccccc3n2C)cc1`, the GI50 was 7.82 µM and the TGI is above 100 µM. As for `CCOC(=O)[C@H](O)[C@@H](O)C(=O)NCc1ccc(C(=O)c2ccccc2)cc1`, the concentration for total growth inhibition (TGI) is above 100 µM.

Consider `CN1CCN(Cc2ccc(NC(=O)c3cncc(C#Cc4cncc5ncccc45)c3)cc2C(F)(F)F)CC1`, for which the GI50 is 3.32 µM and the TGI worked out at 14.3 µM. As to `COC(=O)Nc1nc2ccc(S(=O)(=O)n3nnc4ccccc43)cc2[nH]1`, the TGI was above 100 µM.

Regarding `O=S(=O)(O)c1ccc(-c2nnc(-c3ccccn3)nc2-c2ccc(S(=O)(=O)O)o2)o1`, the TGI is above 100 µM. In turn, `C[C@]12CCc3nonc3C1CC[C@@H]1C2CC[C@]2(C)NC(=O)CCC12` (some centres undefined) gave a TGI above 100 µM.

As for `Cc1cccc(C(=O)/C=C/SC(=NC#N)SCc2ccccc2)c1`, the GI50 was 21.4 µM and the concentration for total growth inhibition (TGI) stood at 52.1 µM. Consider `Cc1ccc(C[P+]2(c3ccccc3)CCCCC2)cc1`, for which the TGI was above 100 µM. Regarding `CC(=O)c1cc2c(cc1Nc1c3ccccc3nc3occ(Cl)c13)OCO2`, the 50% growth inhibitory concentration (GI50) was 0.123 µM and the TGI is 2.18 µM. With `O=C1OCCC1C(O)C1c2ccccc2-c2ccccc21` (centres undefined), the TGI was above 100 µM. Same read-out and setting: the value for `CC(Oc1ccc(OCC2CCCCC2)cc1)C(N)=O` (centres undefined) was above 100 µM; that for `Cc1ccc([N+](=O)[O-])cc1NC(=O)C(=O)C(C(=O)c1ccccc1F)C1OC(=O)c2ccccc21` (centres undefined) was above 100 µM; that for `O=C(O)C1=C(C(=O)O)N(c2ccncc2)C(c2ccco2)=CC1c1ccccc1[N+](=O)[O-]` (centres undefined) was 30.9 µM. As to `C=CCCCC1SC2=C(CC)CCCN2C1=O` (centres undefined), the TGI is above 100 µM. As for `O=[N+]([O-])c1ccc2c(c1)Nc1c3ccccc3nc3cccc-2c13`, the total growth inhibition concentration (TGI) is above 100 µM.

`Nc1ccc(N=Nc2ccc(-c3ccc(O)cc3)cc2)c2ccc(S(=O)(=O)O)cc12` returned a TGI above 100 µM. On the same count and under the same terms, the value for `Cc1n[nH]c(=O)n1/N=C/c1cccs1` was above 100 µM. `O=C1Nc2ccccc2S/C1=C\c1cccc(C(F)(F)F)c1`: the total growth inhibition concentration (TGI) is above 100 µM. Molecule `O=C(NNc1ccnc2cc(Cl)ccc12)/C(=C\c1ccccc1Cl)NC(=O)c1ccccc1` yielded a TGI above 100 µM.

Consider `NC(=S)Nc1cc(Cl)ccc1Cl`, for which the TGI is above 100 µM.

The molecule `Oc1ccc2oc3c(O)c4ccccc4cc3c2c1` yielded a total growth inhibition concentration (TGI) above 100 µM. Turning to `Cc1ccc2nc(-c3ccc(-n4c(C)nc(=O)c(-c5ccc(F)cc5)c4C)cc3)sc2c1`, the TGI stood at 32.4 µM. For `COc1c(NC(C)=O)cc(C)cc1NC(C)=O`, the total growth inhibition concentration (TGI) was above 100 µM. Still for that read-out and setting: as for `CC1(C)CC(=O)C2=C(C1)S/C(=C1/SC3=C(S1)C(=O)CC(C)(C)C3)S2`, the figure is above 251 µM.
